Results on 59 compounds are retold here after the supplement of paper PMC9446081.

SMILES strings stand for the structures. The whole screen tested about 39,000 compounds, of which about 220 (0.56%) showed activity. The list shows a part of the results.
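Note: static incubation at 37 °C against the wild-type strain, values averaged over two biological replicates.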

For the test, the system named is Escherichia coli K-12 BW25113. Description: relative growth (OD600 normalised to plate interquartile mean) (fraction); higher = less growth inhibition, active = 0.2 or less. Conditions: 50 µM; LB; incubation time: overnight (16-24 h).
For `CN1CCN(C(=O)C[C@@H]2CC[C@@H]3[C@H](COC[C@@H](O)CN3CC3CCCC3)O2)CC1`, the relative growth was inactive: 0.987.
Turning to `O=C(C[C@H]1C[C@H]2c3cc(NC(=O)Cc4ccncc4)ccc3O[C@H]2[C@H](CO)O1)NCc1cccc(F)c1`, the relative growth was inactive: 0.916.
As for `C[C@H]1CN([C@@H](C)CO)C(=O)Cc2cc(NS(=O)(=O)c3ccc(F)cc3)ccc2O[C@H]1CN(C)S(=O)(=O)c1ccccc1`, the relative growth is inactive: 0.99.
To `C[C@@H]1CN([C@H](C)CO)C(=O)c2cc(NC(=O)CCCCCC(=O)Nc3ccccc3N)ccc2O[C@H]1CN(C)C(=O)Nc1ccc(F)cc1` belongs inactive: 1.04; to `COc1ccc(CN(C)C[C@H]2OCCCC[C@@H](C)Oc3ccc(NC(=O)Cc4ccccc4)cc3C(=O)N([C@@H](C)CO)C[C@@H]2C)cc1`, inactive: 0.99; to `CCOC(=O)N(C)C[C@@H]1OCc2cnnn2CCCC(=O)N([C@@H](C)CO)C[C@H]1C`, inactive: 1.03.
As to `C[C@@H]1CCCCO[C@@H](CN(C)CC2CC2)[C@H](C)CN([C@@H](C)CO)C(=O)c2cc(NC(=O)Nc3cccc4ccccc34)ccc2O1`, the relative growth is inactive: 1.
For the compound `Cc1noc(C)c1NC(=O)N(C)C[C@H]1Oc2ccc(NS(=O)(=O)c3ccccc3)cc2C(=O)N([C@@H](C)CO)C[C@H]1C`, the relative growth is inactive: 0.971.
Regarding `Cc1ccc(S(=O)(=O)N(C)C[C@@H]2Oc3ccc(NC(=O)NC(C)C)cc3CC(=O)N([C@H](C)CO)C[C@@H]2C)cc1`, the relative growth is inactive: 0.972.
To `CS(=O)(=O)n1cc2c(n1)CN([C@H]1CO[C@H](c3cc(F)ccc3F)[C@@H](N)C1)C2` belongs inactive: 0.994; to `COc1cc(/C=C/c2cc(/C=C/c3ccc(O)c(OC)c3)n(Cc3ccc4c(c3)OCO4)c(=S)n2)ccc1O`, inactive: 1.04.
As for `CCCC(=O)Nc1ccc2c(c1)OC[C@H](C)N(Cc1ccc(-c3ccccn3)cc1)C[C@H](C)[C@H](OC)CN(C)C2=O`, the relative growth is inactive: 1.01.
Consider `C[C@@H]1CCCCO[C@@H](CN(C)C)[C@@H](C)CN([C@H](C)CO)C(=O)c2cc(NC(=O)CCCCCC(=O)Nc3ccccc3N)ccc2O1`, for which the relative growth is inactive: 1.02.
Take `COc1ccc(NC(=O)N(C)C[C@H]2Oc3c(NC(=O)CCCCCC(=O)Nc4ccccc4N)cccc3C(=O)N([C@@H](C)CO)C[C@H]2C)cc1`: the relative growth is inactive: 1.
To `C[C@@H]1CN([C@@H](C)CO)C(=O)CCCn2nncc2CO[C@@H]1CN(C)S(C)(=O)=O` belongs inactive: 1.02.
Take `COCCOC(=O)N1C(=O)[C@@]2(c3cc(C#CC4(O)CCCCCC4)ccc31)[C@H](c1ccccc1OCCO)N1[C@H](c3ccccc3)[C@H](c3ccccc3)OC(=O)[C@H]1[C@@H]2C(=O)N1CCc2cc(OC)c(OC)cc2C1`: the relative growth was inactive: 1.01.
`Cc1ccc(S(=O)(=O)N(C)C[C@H]2Oc3c(NS(=O)(=O)c4ccc(F)cc4)cccc3C(=O)N([C@H](C)CO)C[C@@H]2C)cc1`: the relative growth is inactive: 1.03.
Next, `Nc1cccc(Cn2cncn2)c1`: inactive: 0.937; `C[C@H]1CCCCO[C@@H](CN(C)C(=O)Nc2ccc(F)cc2)[C@@H](C)CN([C@@H](C)CO)C(=O)c2cc(NC(=O)C3CCCCC3)ccc2O1`: inactive: 0.996; `Cc1ccc(S[C@]2(C(=O)NCC(F)(F)F)CC(=O)N(C3Cc4ccccc4C3)[C@@H]2c2ccc(CO)cc2I)cc1`: inactive: 1.
Next, `C[C@@H]1CN([C@@H](C)CO)C(=O)CCCn2cc(nn2)CO[C@@H]1CN(C)C(=O)c1ccc(N2CCN(C)CC2)cc1`: inactive: 1.02; `C[C@@H]1CN([C@@H](C)CO)C(=O)c2cccc(NC(=O)Nc3ccccc3)c2O[C@@H]1CN(C)CC1CCCCC1`: inactive: 1.01; `CC1=NN(c2ccc(C)c(C)c2)C(=O)C1=NNc1cccc(-c2cccc(C(=O)O)c2)c1O`: inactive: 1.01.
Next, `COc1cccc(-c2ccc3c(c2)O[C@H](CN(C)C(=O)C2CCOCC2)[C@@H](C)CN([C@H](C)CO)S3(=O)=O)c1`: inactive: 0.993.
With `Cc1cc(C(=O)Nc2cccc3c2O[C@H](CN(C)Cc2ccc(C(=O)O)cc2)[C@@H](C)CN([C@@H](C)CO)C3=O)n(C)n1`, the relative growth was inactive: 0.926.
To `C[C@H](CO)N1C[C@H](C)[C@H](CN(C)S(=O)(=O)c2ccc(F)cc2)OCCCC[C@H](C)Oc2ccc(NC(=O)NC3CCCCC3)cc2C1=O` belongs inactive: 0.989; to `Cc1noc(C)c1S(=O)(=O)Nc1ccc2c(c1)C(=O)N([C@@H](C)CO)C[C@H](C)[C@@H](CN(C)Cc1ccccc1)OCCCC[C@@H](C)O2`, inactive: 0.992.
To `COc1ccc(CNC(=S)NCCO)cc1` belongs inactive: 1.02.
To `COC(=O)c1c(CC[C@@H](CO)NC(=O)N[C@H](Cc2ccccc2)Cn2cc(-c3ccccc3N)nn2)oc(C(C)=O)c1C(=O)OC` belongs inactive: 1.01; to `Cc1ccc(S(=O)(=O)Nc2ccc3c(c2)C(=O)N([C@H](C)CO)C[C@H](C)[C@@H](CN(C)Cc2ccccc2)OCCCC[C@H](C)O3)cc1`, inactive: 1.04; to `CCS(=O)(=O)Nc1ccc2c(c1)C(=O)N(C)[C@H]1CC[C@H](CC(=O)NCCOC)O[C@H]1CO2`, inactive: 0.995.
Turning to `C[C@H](O)C#Cc1ccc2c(c1)O[C@@H](CN(C)C(=O)Cc1ccccn1)[C@@H](C)CN([C@@H](C)CO)S2(=O)=O`, the relative growth was inactive: 0.996.
Regarding `CC(C)NC(=O)Nc1cccc2c1O[C@H](CN(C)Cc1ccc3c(c1)OCO3)[C@@H](C)CN([C@H](C)CO)C2=O`, the relative growth was inactive: 0.983.
Next, `Cc1ccc(S(=O)(=O)N(C)C[C@@H]2OCCCC[C@@H](C)Oc3ccc(NC(=O)Nc4ccc(C(F)(F)F)cc4)cc3C(=O)N([C@@H](C)CO)C[C@@H]2C)cc1`: inactive: 1.02; `Cc1ccc(S(=O)(=O)N(C)C[C@@H]2Oc3ccc(NS(C)(=O)=O)cc3CC(=O)N([C@@H](C)CO)C[C@@H]2C)cc1`: inactive: 1.02; `C[C@@H]1CN([C@@H](C)CO)C(=O)CCCn2nncc2CO[C@H]1CN(C)C(=O)Nc1cccc(Oc2ccccn2)c1`: inactive: 1.01.
Next, `O=C1O[C@H](c2ccccc2)[C@H](c2ccccc2)N2[C@H]1[C@@H](C(=O)NC[C@H](O)c1ccccc1)[C@]1(C(=O)Nc3ccc(C#CC4(O)CCCCCC4)cc31)[C@H]2c1ccc(O)cc1`: inactive: 1; `COc1ccc(NC(=O)Nc2ccc3c(c2)CC(=O)N([C@H](C)CO)C[C@@H](C)[C@@H](CN(C)S(=O)(=O)c2c(C)noc2C)O3)cc1`: inactive: 0.969.
Turning to `O=C(CC(=O)N1CCOCC1)N1CCOCC1`, the relative growth was inactive: 0.991.
Next, `C[C@@H]1CN([C@H](C)CO)S(=O)(=O)c2ccc(C#CC3CC3)cc2O[C@H]1CN(C)Cc1cccc(F)c1`: inactive: 1.03; `Cc1cc(O)cc(=O)o1`: inactive: 1.12.
On to `C[C@@H]1CN([C@@H](C)CO)C(=O)c2cccc(NC(=O)c3ccncc3)c2O[C@H]1CN(C)S(=O)(=O)c1ccc(F)cc1`, for which the relative growth was inactive: 0.966.
Next, `C[C@H]1CN([C@@H](C)CO)C(=O)c2cc(C#CCN(C)C)cnc2O[C@@H]1CN(C)Cc1ccc(C(=O)O)cc1`: inactive: 0.998; `Cc1ccc(N2C(=O)c3ccccc3[C@](C)(C(=O)NCCN3CCOCC3)[C@@H]2c2ccc(CO)cc2)nc1`: inactive: 1.01.
`O=C(CCCCC(=O)N/N=C/[C@H](O)[C@@H](O)[C@@H](O)[C@H](O)CO)NO`: the relative growth was inactive: 0.979.
To `C[C@H](CO)N1C[C@H](C)[C@H](CN(C)CC2CCCCC2)Oc2ccc(NC(=O)Cn3cnnn3)cc2C1=O` belongs inactive: 0.999; to `COc1ccc(NC(=O)Nc2ccc3c(c2)C(=O)N([C@H](C)CO)C[C@H](C)[C@H](CN(C)C(=O)Cc2ccccc2)OCCCC[C@H](C)O3)cc1`, inactive: 1.01.
Next, `Cc1noc(C)c1S(=O)(=O)Nc1ccc2c(c1)CC(=O)N([C@H](C)CO)C[C@@H](C)[C@H](CN(C)Cc1ccccc1)O2`: inactive: 0.984; `C[C@H](CO)N1C[C@H](C)[C@H](CN(C)C(=O)Nc2cccc3ccccc23)Oc2ccc(NC(=O)Nc3ccc(C(F)(F)F)cc3)cc2CC1=O`: inactive: 0.97; `C[C@H]1CN([C@@H](C)CO)S(=O)(=O)c2ccc(-c3ccc(C(=O)N(C)C)cc3)cc2O[C@H]1CN(C)C(=O)C1CC1`: inactive: 1.
Take `Cc1ccc(-n2nnc(C(N)=O)c2C)cc1`: the relative growth was inactive: 0.949.
To `C[C@@H]1CCCCO[C@H](CN(C)Cc2ccc(C(F)(F)F)cc2)[C@@H](C)CN([C@@H](C)CO)C(=O)c2cc(NC(=O)Nc3cccc4ccccc34)ccc2O1` belongs inactive: 0.916; to `C[C@H]1CCCCO[C@H](CN(C)C(=O)NC2CCCCC2)[C@@H](C)CN([C@@H](C)CO)C(=O)c2cc(NS(=O)(=O)c3ccc(F)cc3)ccc2O1`, inactive: 1.01.
To `C[C@@H]1CN([C@H](C)CO)C(=O)c2cccc(NS(=O)(=O)c3cn(C)cn3)c2O[C@H]1CN(C)CC1CC1` belongs inactive: 1.01; to `C[C@H](CO)N1C[C@H](C)[C@@H](CN(C)C(=O)CN(C)C)Oc2ncc(C#CC(C)(C)O)cc2C1=O`, inactive: 1.04.
Next, `C[C@H](CO)N1C[C@H](C)[C@@H](CN(C)S(=O)(=O)c2ccc(Cl)cc2)OCc2ccccc2-c2c(n(C)c3ccccc23)C1=O`: inactive: 1; `CO[C@@H]1CN(C)C(=O)c2ccc(NC(=O)c3ccc(F)cc3)cc2OC[C@H](C)N(C(=O)CN(C)C)C[C@@H]1C`: inactive: 1.
With `CC1(C)OC(=O)C2(C(=O)O1)[C@@H](c1ccc(-c3ccc(C(F)(F)F)cc3)cc1)CC(=O)C[C@H]2c1ccccc1`, the relative growth is inactive: 1.01.
As for `Cc1noc(C)c1S(=O)(=O)Nc1ccc2c(c1)C(=O)N([C@H](C)CO)C[C@@H](C)[C@@H](CN(C)Cc1ccc3c(c1)OCO3)O2`, the relative growth was inactive: 0.999.
